In the supplement of paper PMC9174493:
The other results are listed elsewhere or left out. Single values of this set are uncertain. Values with irradiation are relative to irradiated vehicle.

Experiments:
A549-Dual [1] = assay: NF-kB reporter (SEAP) activity, viability-corrected, relative to vehicle (fold change vs vehicle); higher = more activation of STING-IRF / NF-kB immune response reporter
A549-Dual [2] = assay: ISRE reporter (Lucia luciferase) activity, viability-corrected, relative to vehicle (fold change vs vehicle); higher = more activation of STING-IRF / NF-kB immune response reporter
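Throughout, for NF-kB reporter (SEAP) activity, viability-corrected, relative to vehicle: viability correction based on the alamar blue assay, with concentrations leaving 10% survival or less dropped.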

| Structure (SMILES) | NF-kB reporter (A549-Dual [1]; 0.1 µM, irradiation: 8 Gy/4 fr) | NF-kB reporter (A549-Dual [1]; 0.1 µM, irradiation: none) | NF-kB reporter (A549-Dual [1]; 0.3 µM, irradiation: 8 Gy/4 fr) | NF-kB reporter (A549-Dual [1]; 0.3 µM, irradiation: none) | NF-kB reporter (A549-Dual [1]; 1 µM, irradiation: 8 Gy/4 fr) | NF-kB reporter (A549-Dual [1]; 1 µM, irradiation: none) | NF-kB reporter (A549-Dual [1]; 3 µM, irradiation: 8 Gy/4 fr) | NF-kB reporter (A549-Dual [1]; 3 µM, irradiation: none) | NF-kB reporter (A549-Dual [1]; 10 µM, irradiation: 8 Gy/4 fr) | NF-kB reporter (A549-Dual [1]; 10 µM, irradiation: none) | ISRE reporter (A549-Dual [2]; 0.1 µM, irradiation: 8 Gy/4 fr) | ISRE reporter (A549-Dual [2]; 0.1 µM, irradiation: none) | ISRE reporter (A549-Dual [2]; 0.3 µM, irradiation: 8 Gy/4 fr) | ISRE reporter (A549-Dual [2]; 0.3 µM, irradiation: none) | ISRE reporter (A549-Dual [2]; 1 µM, irradiation: 8 Gy/4 fr) | ISRE reporter (A549-Dual [2]; 1 µM, irradiation: none) | ISRE reporter (A549-Dual [2]; 3 µM, irradiation: 8 Gy/4 fr) | ISRE reporter (A549-Dual [2]; 3 µM, irradiation: none) | ISRE reporter (A549-Dual [2]; 10 µM, irradiation: 8 Gy/4 fr) | ISRE reporter (A549-Dual [2]; 10 µM, irradiation: none) |
| --- | --- | --- | --- | --- | --- | --- | --- | --- | --- | --- | --- | --- | --- | --- | --- | --- | --- | --- | --- | --- |
| NC(=O)C[C@H](N)C(=O)O [L-Asparagine] | 1.58 | 0.946 | 1.3 | 1.47 | 1.09 | 1.12 | 1 | 0.917 | 1.31 | 1.13 | 1.01 | 1.01 | 0.964 | 1.02 | 1.15 | 0.769 | 0.683 | 1.02 | 0.989 | 0.817 |
| COc1cc2c(Nc3ccc(Br)cc3F)ncnc2cc1OCC1CCN(C)CC1 [Vandetanib (ZD6474)] | 1.27 | 1.11 | 1.09 | 1.22 | 0.955 | 1.43 | 0.979 | 1.34 | 0.899 | 0.908 | 1.23 | 1.46 | 1.06 | 1.04 | 1.02 | 1.17 | 1.01 | 0.833 | 1.01 | 0.717 |
| COc1c2occc2cc2ccc(=O)oc12 [Methoxsalen] | 0.878 | 1.15 | 0.939 | 1.15 | 1.34 | 0.871 | 1.44 | 0.941 | 1.05 | 0.92 | 0.929 | 0.861 | 0.795 | 0.872 | 0.842 | 0.801 | 0.922 | 0.867 | 0.784 | 0.847 |
| CC1CCC2(C(=O)OC3OC(COC4OC(CO)C(OC5OC(C)C(O)C(O)C5O)C(O)C4O)C(O)C(O)C3O)CCC3(C)C(=CCC4C5(C)CC(O)C(O)C(C)(CO)C5CCC43C)C2C1C (stereo not given) [Asiaticoside] | 1.21 | 1.49 | 1.11 | 1.69 | 1.34 | 1.24 | 1.36 | 1.36 | 1.35 | 1.23 | 1.07 | 1.51 | 0.869 | 1.01 | 0.934 | 1.01 | 0.911 | 1.12 | 0.945 | 0.944 |
| CC(C)(C)c1ccc(C(=O)CCCN2CCC(OC(c3ccccc3)c3ccccc3)CC2)cc1 [Ebastine] | 1.32 | 1.34 | 1.36 | 1.13 | 1.33 | 1.07 | 1.49 | 1.22 | 1.5 | 1.35 | 0.939 | 0.959 | 1.14 | 0.817 | 1.05 | 0.808 | 1.06 | 0.896 | 1.13 | 1.12 |
| C/C=C(/C(=C/C)c1ccc(O)cc1)c1ccc(O)cc1 [Dienestrol] | 0.878 | 0.955 | 0.995 | 0.955 | 0.878 | 0.912 | 0.927 | 0.942 | 1.01 | 1.04 | 0.906 | 0.947 | 1.07 | 1.01 | 0.946 | 0.972 | 0.945 | 0.965 | 1.01 | 0.945 |
| CC(=O)Nc1ccc(OC(=O)c2ccccc2OC(C)=O)cc1 [Benorylate] | 1 | 0.901 | 1.01 | 0.73 | 1.05 | 0.777 | 1.08 | 0.823 | 1.06 | 1.02 | 1.04 | 0.81 | 0.957 | 0.641 | 0.761 | 0.692 | 0.765 | 0.984 | 0.774 | 0.773 |
| C=CCC1/C=C(\C)CC(C)CC(OC)C2OC(O)(C(=O)C(=O)N3CCCCC3C(=O)OC(/C(C)=C/C3CCC(O)C(OC)C3)C(C)C(O)CC1=O)C(C)CC2OC (stereo not given) [Tacrolimus (FK506)] | 1.25 | 1.28 | 1.04 | 1.53 | 1.14 | 2.02 | 1.26 | 1.48 | 1.39 | 1.48 | 1.1 | 1.29 | 1.1 | 1.31 | 1.24 | 1.59 | 1.33 | 1.32 | 1.21 | 2.24 |
| OCc1ccccc1OC1OC(CO)C(O)C(O)C1O (stereo not given) [Salicin] | 0.817 | 1.25 | 0.97 | 1.24 | 1.08 | 0.999 | 1.34 | 1.03 | 0.866 | 0.89 | 0.937 | 1.09 | 0.776 | 0.932 | 0.709 | 0.891 | 0.826 | 1.08 | 0.842 | 0.826 |
| C=C(NC(=O)C(=C)NC(=O)c1csc(C2=NC3c4csc(n4)C4NC(=O)c5csc(n5)C(C(C)(O)C(C)O)NC(=O)C5CSC(=N5)/C(=C/C)NC(=O)C(C(C)O)NC(=O)c5csc(n5)C3(CC2)NC(=O)C(C)NC(=O)C(=C)NC(=O)C(C)NC(=O)C(C(C)CC)NC2C=Cc3c(C(C)O)cc(nc3C2O)C(=O)OC4C)n1)C(N)=O (stereo not given) [Thiostrepton] | 1.04 | 1.06 | 0.933 | 1.12 | 0.972 | 1.35 | 0.9 | 1.2 | 0.865 | 1.12 | 0.948 | 1 | 0.972 | 1.01 | 0.99 | 0.931 | 0.66 | 0.771 | 0.606 | 1.11 |
| O=C(OCCOCCO)c1ccccc1Nc1cccc(C(F)(F)F)c1 [Etofenamate] | 0.964 | 1.11 | 1 | 0.946 | 1.16 | 0.891 | 0.956 | 0.89 | 0.771 | 1.03 | 0.888 | 0.753 | 0.933 | 0.635 | 0.721 | 0.65 | 0.827 | 0.789 | 0.644 | 1.05 |
| CC(C)Cn1cnc2c(N)nc3ccccc3c21 [Imiquimod] | 1.24 | 1.05 | 1.22 | 1.44 | 1.14 | 1.45 | 1.07 | 1.31 | 0.919 | 1.01 | 1.08 | 1.37 | 1.13 | 1.17 | 1.17 | 1.45 | 1.14 | 0.926 | 0.904 | 0.834 |
| CC(=O)OCC(=O)C1(O)CCC2C3CCC4=CC(=O)CCC4(C)C3(F)C(O)CC21C (stereo not given) [Fludrocortisone acetate] | 0.591 | 0.887 | 0.776 | 0.981 | 1.11 | 0.784 | 0.57 | 0.821 | 0.534 | 0.823 | 0.0955 | 0.285 | 0.11 | 0.369 | 0.0591 | 0.217 | 0.062 | 0.198 | 0.0582 | 0.257 |
| O=C(O)CCCN1CCC(OC(c2ccc(Cl)cc2)c2ccccn2)CC1 (stereo not given) [Bepotastine] | 1.16 | 1.97 | 1.25 | 1.6 | 1.25 | 1.12 | 1.73 | 1.17 | 1.04 | 0.762 | 1.13 | 1.44 | 0.942 | 1.19 | 1.18 | 0.964 | 0.94 | 0.943 | 1.12 | 0.853 |
